{"source": "paper PMC7477951", "about": "(Structure (London, England : 1993), 2019)", "binders": {"B1": {"name": "human BTLA ([…]), refolded (domain or fragment)", "chain": "not shown"}}, "molecular_target": "T1, human HVEM (L39-C162) expressed in Drosophila S2 cells (human, UniProt Q92956 39-162)", "T1 sequence (looked up)": "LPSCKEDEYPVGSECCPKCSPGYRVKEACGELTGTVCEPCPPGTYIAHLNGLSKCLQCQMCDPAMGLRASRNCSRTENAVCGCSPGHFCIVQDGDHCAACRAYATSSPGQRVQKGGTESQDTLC", "experiment": "SEC", "data": [{"binder": "B1", "values": [{"measurement": "binding result", "value": "binds"}]}]}
